# Reference: PubChem BioAssay AID686979 (National Center for Advancing Translational Sciences (NCATS), 2013)
# Among all 420,000 compounds or so, about 50,000 (12%) were called active. This list was built around the results that the source calls inconclusive (neither active nor inactive); the mix of calls is not that of the screen. Calls come from the whole dose curve; as a rule, active = well fitted inhibition curve with a large enough effect; inconclusive = small, poorly fitted or top-dose-only effect; inactive = flat fitted curve, though single readings scatter. Potencies of inconclusive entries are left out as doubtful fits.
# Assay: qHTS for Inhibitors of human tyrosyl-DNA phosphodiesterase 1 (TDP1): qHTS in cells in presence of CPT; note: nearly all actives have a fitted effect of over 55% in size
# Settings: chicken DT40 Tdp1-/-;hTDP1 cells + 20 nM CPT, ATP luminescence, 48 h; activity change, negative = growth inhibition: at 46.2 µM (top of the series)
# Outline: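 Chicken DT40 Tdp1-/- cells complemented with human TDP1, 400 cells/well, exposed to compounds plus 20 nM camptothecin for at least 48 h at 37 C; viability read as ATP content by CellTiter-Glo luminescence.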
# % is set by controls: 0 for no effect and ±100 for the full control effect; potency is the fitted concentration of half-maximal effect; tags give direction and shape of the fitted curve.
Structure (SMILES),Potency,"activity change, negative = growth inhibition"
O=C(CSc1nnc(C2CC2)n1C1CC1)N1CCN(c2ccc(O)cc2)CC1,inactive,–
COc1ccc(NC(=O)C(CC(=O)O)Cc2ccccc2)cc1 (stereo not drawn),inactive,–
Cc1nnn(-c2nonc2N)c1C(=O)N/N=C/c1ccccc1O,active: 4.11 µM,–
CC1CCCN(S(=O)(=O)c2ccc(C(=O)Nc3nnc(-c4ccco4)o3)cc2)C1 (stereo not drawn),active: 8.2 µM,–
CC(C)(C)S(=O)N1Cc2cc(C(=O)NCc3ccc(Oc4ccccc4)cc3)nc(-c3cccc(-c4cc5ccccc5o4)c3)c2[C@H]1CCO (stereo partly drawn),"inconclusive [inhibitor, single point]",–
O=C(NCc1ccc2c(c1)CCN2C(=O)c1ccccc1)c1ccc(Br)o1,"inconclusive [inhibitor, single point]",–
COc1ccccc1Nc1nc(N)nc(CN2CCN(c3ccccc3F)CC2)n1,–,inconclusive: -30.7% [inhibitor]
COc1cccc(C(CNc2ccc(S(=O)(=O)N3CCN(C)CC3)cc2[N+](=O)[O-])N(C)C)c1 (stereo not drawn),active: 23.1 µM,–
O=C(O)CSc1ccc2nnc(-c3cccnc3)n2n1,–,inconclusive: -3.03% [inhibitor]
COc1cc2ncnc(NCc3ccccc3Cl)c2cc1OC,active: 20.6 µM,–
CCc1cc2c(cc3c(=O)n(CC(=O)N4CCN(C)CC4)ncn32)s1,"inconclusive [inhibitor, single point]",–
CN(C)c1ccc(CN(Cc2ccco2)C(=O)c2ccco2)cc1,"inconclusive [inhibitor, partial curve]",–
O=C(O)c1ccc(Cl)c(S(=O)(=O)N(Cc2ccccc2)c2ccccc2Cl)c1,"inconclusive [inhibitor, single point]",–
CCOC(=O)c1c(C)[nH]c(C)c1S(=O)(=O)N(C)CC(=O)Nc1ccccc1C,inactive,–
COc1ccc(C(=O)CCC(=O)N2CCN(c3ccc(C)cc3)C(C)C2)cc1 (stereo not drawn),"inconclusive [inhibitor, single point]",–
Cc1cn(C)c(CC(=O)N2CCN(c3ccc(F)cc3)CC2)c1C(=O)O,inactive,–
COc1ccc2cc(/C=N/NC(=O)CN(c3ccccc3C)S(=O)(=O)c3ccccc3)c(Cl)nc2c1,active: 2.91 µM,–
CCCCn1c(N)c(N(CCOC)C(=O)c2oc3ccc(OCC)cc3c2C)c(=O)[nH]c1=O,inactive,–
COC(=O)c1ccccc1NC(=O)Cn1nc(C(F)(F)F)c2c1CCCC2,active: 23.1 µM,–
CCOc1ccc2oc(-c3ccccc3)c(C(N)=O)c2c1,inactive,–
CCN(C(=O)Cn1cc(C(=O)c2ccc(F)cc2)c(=O)c2ccc(C)nc21)c1cccc(C)c1,active: 16.4 µM,–
CN(CC(=O)Nc1ccc(F)c(F)c1F)C(=O)CCCSc1nc2ccccc2[nH]1,"inconclusive [inhibitor, single point]",–
Cn1cccc1-c1cc(C(=O)N/N=C/c2cc(Br)ccc2O)[nH]n1,active: 5.8 µM,–

Structure (SMILES),Potency,"activity change, negative = growth inhibition"
CCCCCCCCC(c1nc2cc(C)c(C)cc2[nH]1)n1c(=O)c(-c2ccccc2Br)nc2ccccc21 (stereo not drawn),inactive,–
CCOc1cc(-c2c(C)c(C)nc(N)c2C#N)ccc1O,"inconclusive [inhibitor, single point]",–
Cc1ccc(C)c(N2CCN(C(=O)Cn3c(C)c4cnn(-c5ccccc5)c(=O)c4c3C)CC2)c1,active: 5.17 µM,–
COc1ccc(C(=O)N=c2nc(-c3ccccc3)n(-c3ccccc3)s2)cc1,active: 12.6 µM,–
CC1CCCCN1c1nc(-c2ccc(C(C)(C)C)cc2)nc2ccccc12 (stereo not drawn),"inconclusive [inhibitor, single point]",–
COc1ccc(C(=O)Nc2nc(CC(=O)NCc3ccc(F)cc3)cs2)cc1,"inconclusive [inhibitor, single point]",–
COc1ccc(C(OC(=O)c2cccs2)C(=O)NCC2CCCO2)cc1 (stereo not drawn),active: 3.66 µM,–
CSCCC(NS(=O)(=O)c1ccc2c(c1)OCCO2)C(=O)N(C)Cc1ccc(C)cc1 (stereo not drawn),"inconclusive [inhibitor, single point]",–
Cc1ccc(C(=O)Nc2c(C(=O)NCc3ccco3)cnn2-c2ccccc2)cc1,"inconclusive [inhibitor, partial curve, poor fit]",–
CCOc1ccc(C(=O)N2CCC(c3ccncc3)CC2)cc1,active: 13 µM,–
Cn1c(Cc2ccccc2)nnc1SCCC(=O)Nc1ccccc1,inactive,–
Cc1ccc(S(=O)(=O)N/N=C/c2ccc(OS(=O)(=O)c3ccc(C)c([N+](=O)[O-])c3)cc2)cc1,–,inconclusive: -36.4% [inhibitor]
Cc1c(Cl)cnc(NC(=O)COC(=O)/C=C/c2ccco2)c1Cl,inactive,–
CCCCCCn1c(CN2CCN(Cc3ccccc3)CC2)nc2c1c(=O)n(C)c(=O)n2C,"inconclusive [inhibitor, single point]",–
Cc1cccc(OCCOc2ccccc2C=C(C#N)C#N)c1,"inconclusive [inhibitor, single point]",–
Cc1ccccc1C(=O)NNC(=O)CSc1nnc(C)n1-c1ccccc1,inactive,–
O=C(Nc1ccc([N+](=O)[O-])cc1)Nc1ccc(N2CCOCC2)c2nonc12,active: 20.6 µM,–
COc1cccc(-n2c(-c3ccc(C)cc3)cc3c2CC(C)(C)CC3=O)c1,"inconclusive [inhibitor, single point]",–
COc1ccc(-c2oc3ncnc(NCCN4CCOCC4)c3c2-c2ccc(OC)cc2)cc1,"inconclusive [inhibitor, single point]",–
CCOC(=O)C1=C(CC)OC(N)=C(C#N)C1c1ccc(OC)c(OC)c1OC (stereo not drawn),"inconclusive [inhibitor, partial curve, poor fit]",–
COc1ccc(N2CCN(CCNC(=O)C3CCN(S(=O)(=O)c4cccs4)CC3)CC2)cc1,"inconclusive [inhibitor, partial curve]",–
COc1cc(C(C)=O)ccc1OCC(O)Cn1nc(C)c(Br)c1C (stereo not drawn),"inconclusive [inhibitor, single point]",–
CC(=O)Nc1ccccc1OCC(=O)NCCc1ccc(Cl)cc1Cl,"inconclusive [inhibitor, single point]",–

Structure (SMILES),Potency,"activity change, negative = growth inhibition"
O=C(c1ccc(SCc2cccc(Br)c2)c([N+](=O)[O-])c1)N1CCN(c2ccccn2)CC1,"inconclusive [inhibitor, single point]",–
CC(C)c1nc2ccc(C(=O)NCCCN3CCN(c4ccc(F)cc4)CC3)cc2o1,"inconclusive [inhibitor, partial curve]",–
C[C@]12c3[nH]c4cc(-c5ccco5)ccc4c3CCN1C(=O)[C@@H](CC(=O)NCCc1ccccn1)C[C@@H]2C(=O)N1CCCCC1,"inconclusive [inhibitor, single point]",–
COC(=O)c1cc(S(=O)(=O)N2CCN(c3cc(C)ccc3C)CC2)c[nH]1,"inconclusive [inhibitor, partial curve, poor fit]",–
Cn1c(=O)c2c(SCC(=O)N3CCCc4ccccc43)nc(C3CC3)nc2n(C)c1=O,"inconclusive [inhibitor, partial curve]",–
CCC1CN(C(=O)N2CCC(C(=O)NCc3ccco3)CC2)c2cc(C)ccc2O1 (stereo not drawn),"inconclusive [inhibitor, single point]",–
COc1ccc(CCN(C)Cc2nc(Cc3ccc(OC)c(OC)c3)no2)cc1OC,"inconclusive [inhibitor, single point]",–
O=C(CNS(=O)(=O)c1ccccc1F)NNC(=O)c1ccc(Br)cc1,"inconclusive [inhibitor, full curve, poor fit]",–
C[C@@H]1O[C@@H](O[C@@H]2C(=O)c3c(O)cc(O)cc3O[C@H]2c2ccc(O)c(O)c2)[C@H](O)[C@H](O)[C@H]1O,inactive,–
COc1ccc(OC)c(NC(=O)CCc2c(C)nc3c(c(C)nn3C(C)(C)C)c2C)c1,"inconclusive [inhibitor, single point]",–
CC(C)c1ccc2occ(CC(=O)Nc3cccc(C(F)(F)F)c3)c2c1,"inconclusive [inhibitor, single point]",–
COc1cc(/C=N/NC(=O)Cc2ccccc2)ccc1Oc1ccc([N+](=O)[O-])cc1[N+](=O)[O-],"inconclusive [inhibitor, single point]",–
COc1cc(NC(=O)C/C(C)=N/NC(=O)c2cccs2)c(OC)cc1Cl,inactive,–
Cc1cnc(NS(=O)(=O)c2ccc(N)cc2)nc1-c1ccccc1O,inactive,–
Cc1ccc(CSCCNS(=O)(=O)c2ccccc2)cc1,inactive,–
Cc1nnc(SCC(=O)NNC(=O)C(C)C)[nH]c1=O,inactive,–
C[C@H]1CN([C@@H](C)CO)C(=O)c2cccc(NS(=O)(=O)c3ccc(Cl)cc3)c2O[C@@H]1CN(C)CC1CCCCC1,"inconclusive [inhibitor, single point]",–
CC(=O)N1c2ccc(S(=O)(=O)NCC3CCC(C(=O)NCc4ccc(C)cc4)CC3)cc2CC1C (stereo not drawn),active: 20.6 µM,–
NCCCC[C@H]1CNC(=S)N1CC1CCCCC1,"inconclusive [inhibitor, single point]",–
CC(=O)NC(c1cccc(F)c1)c1nc(-c2cccc(C(C)C)c2)cs1 (stereo not drawn),active: 25.9 µM,–
CCc1ccc(NC(=O)c2ccc3c(O)c(S(=O)(=O)c4ccccc4)c(=O)[nH]c3c2)cc1,inactive,–
O=C(/C=C/c1ccccc1)Nc1cccc(C(=O)NCCc2ccccc2)c1,"inconclusive [inhibitor, single point]",–
